Experimental data: PubChem BioAssay AID1346428 (National Center for Advancing Translational Sciences (NCATS), 2018)
Values joined by “and” are separate entries in the source; they are usually repeats but may differ in a detail not shown here. Identical values can stand only once. About 1,200 (2.5%) of roughly 48,000 compounds were called active. About 2% were inconclusive and are not listed.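 The calls were made as follows: active = activation of at least 60% and not above a set upper limit (about 1 call in 100 departs from these limits); inconclusive = activation of 40% to 60%, or above that upper limit; inactive = activation under 40%.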 The list shows a part of the results.

biological target: Probable G-protein coupled receptor 32 (Homo sapiens) (UniProt O75388); experiment: qHTS for Agonists of Human Resolvin D1 Receptor DRV1; details: CHO-K1 GPR32 beta-arrestin PathHunter luminescence, 90 min; at 76.9 µM; stronger effect = higher value; zero percent set by DMSO-only wells; also: 0% is about no effect
UniProt O75388, sequence (O75388 whole entry, looked up, the tested form may be a part): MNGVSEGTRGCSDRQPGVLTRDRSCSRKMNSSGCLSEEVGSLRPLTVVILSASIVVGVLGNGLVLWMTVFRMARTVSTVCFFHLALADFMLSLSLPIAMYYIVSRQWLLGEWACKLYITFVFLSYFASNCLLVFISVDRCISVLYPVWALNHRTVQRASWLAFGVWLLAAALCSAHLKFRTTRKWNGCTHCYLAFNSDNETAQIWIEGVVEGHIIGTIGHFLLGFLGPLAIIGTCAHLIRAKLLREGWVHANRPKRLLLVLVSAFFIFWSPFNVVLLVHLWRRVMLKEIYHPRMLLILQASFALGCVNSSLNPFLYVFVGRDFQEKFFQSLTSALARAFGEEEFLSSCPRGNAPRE
In short: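 Agonism was scored as beta-arrestin recruitment to ProLink-fused GPR32 in stably transfected CHO-K1 cells, giving a chemiluminescent beta-Gal signal; compounds were incubated 90 min at 37 °C.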

Row | Compound | activation
1 | CCC(=O)N1CCc2cc(S(=O)(=O)NCCC(=O)NCc3ccc(OC)cc3)ccc21 | inactive: 20%
2 | CCCC1=Nc2cc(C(=O)NCC(C)c3ccccc3)ccc2Sc2ccccc21 (stereo unspecified) | inactive: -15.4%
3 | CCOc1ccc(CNC(=O)Cn2cc3c(n2)-c2c(oc(C(=O)N4CCCC4)c2C)CC3)cc1 | inactive: -9.6%
4 | COc1cccc(CNC(=O)Cn2nc3c(cc2=O)CCCC3)c1OC | inactive: 7.91%
5 | CC1CCCN(C(=O)CCS(=O)(=O)c2cc3c(cc2Cl)NC(=O)CO3)C1 (stereo unspecified) | inactive: 15.3%
6 | Cc1ccc(C2c3c(-c4ccccc4O)n[nH]c3C(=O)N2CCc2ccccc2)cc1 (stereo unspecified) | inactive: 6.99%
7 | CC(=O)N1c2c(cc(Br)cc2S(=O)(=O)Nc2ccc(OC(F)(F)F)cc2)CC1C (stereo unspecified) | inactive: 30.8%
8 | O=C(CCCn1c(=O)[nH]c2ccsc2c1=O)N1CCN(c2cccc(C(F)(F)F)c2)CC1 | active: 91.5%
9 | Cc1cc(Cl)ccc1NC(=O)CN1C(=O)COc2ccc(S(=O)(=O)N3CCC(C)CC3)cc21 | inactive: -12.2%
10 | CCOC(=O)c1noc2ncn(Cc3cccc(C#N)c3)c(=O)c12 | inactive: 6.76%
11 | CCNc1nc(NC(C)CC)nc(Oc2ccc(OCC)nn2)n1 (stereo unspecified) | inactive: 15.5%
12 | COc1ccc(NC(=O)NCc2c(-n3cccc3)sc3c2CCCC3)c(OC)c1 | inactive: -14.7%
13 | CCc1cccc(C)c1NC(=O)NC1COc2ccccc2C1 (stereo unspecified) | inactive: -7.66%
14 | COc1ccc(OCC(=O)Nc2nc(-c3ccc(Br)cc3)ns2)cc1 | inactive: 27.6%
15 | Cc1c(C(=O)OC2CCC(C)CC2)[nH]c2c1C(=O)CC(c1ccccc1Cl)C2 (stereo unspecified) | inactive: -13.7%
16 | CCOc1ccc(CCNC(=O)CCCc2nnc3n(C)c(=O)c4sccc4n23)cc1OCC | inactive: 5.04%
17 | COc1ccccc1CN(Cc1ccco1)c1cnc(S(C)(=O)=O)nc1C(=O)Nc1ccccc1Cl | inactive: -5.47%
18 | COc1ccc(NC(=O)CSc2nc(-c3ccc(OC)c(OC)c3)[nH]c2-c2ccc(C)cc2)cc1 | inactive: -34.2%
19 | COc1ccc(NCc2cc3cc4c(cc3n(CC(=O)Nc3ccccc3)c2=O)OCO4)cc1 | inactive: -44.8%
20 | CCOC(=O)Cc1ccc(NC(=O)N(C(C)C)C2CCN(C(C)=O)CC2)cc1 | inactive: 6.81%
21 | COc1ccc(Nc2cc(C(=O)NCc3cccs3)c3ccccc3n2)cc1 | inactive: -5.08%

Row | Compound | activation
22 | O=C(CCCCn1c(=O)c2ccccc2n(CC(=O)Nc2ccc(F)cc2F)c1=O)NCc1ccccc1Cl | inactive: 5.46%
23 | CN1CCN(C(=O)C(=O)Nc2c3c(nn2-c2cccc(Cl)c2)CSC3)CC1 | inactive: 3.54%
24 | CCOc1ccc(C2=C(C(=O)CC)Sc3nncn3N2C(=O)CC)cc1 | inactive: -37.1%
25 | Clc1ccc(C(Cn2ccnc2)OCc2ccsc2Cl)c(Cl)c1 (stereo unspecified) | inactive: -108%
26 | CCc1ccccc1N1C(=O)N(CC(=O)c2ccc(Cl)cc2)c2ccccc2S1(=O)=O | inactive: -9.68%
27 | Cc1ccc(Cn2c(=O)n(CCc3ccccc3)c(=O)c3c(C)c(C)sc32)cc1 | inactive: 18.7%
28 | CCOC(=O)c1c(C)[nH]c(C)c1S(=O)(=O)N1CCCC(C(=O)NCc2ccc(C)cc2)C1 (stereo unspecified) | inactive: -4.72%
29 | COC(=O)c1c(SC)nc2ccccc2c1OCc1ccc(C)cc1 | inactive: -38%
30 | CCOC(=O)c1cc(S(=O)(=O)N2CCN(c3cccc(OC)c3)CC2)[nH]n1 | inactive: -18.4%
31 | CCCCn1cc(S(=O)(=O)c2ccc(Cl)cc2)c(=O)c2cc(F)c(N3CCCC(C)C3)cc21 (stereo unspecified) | inactive: -10.9%
32 | CCOC(=O)Cn1c(=O)oc2cc(S(=O)(=O)N3CCCC(C)C3)ccc21 (stereo unspecified) | inactive: -12.5%
33 | O=C(NCc1ccc(Cl)cc1)c1ccc2oc(=O)n(Cc3ccccc3)c2c1 | inactive: 4.49%
34 | COC(=O)c1c(-c2ccc(Cl)cc2)noc1N1CCN(c2cccc(C)c2C)CC1 | inactive: 0.155%
35 | CCc1cnc2c(c1SCC(=O)Nc1ccc(OC)c(OC)c1)c(=O)n(C)c(=O)n2C | inactive: 2.59%
36 | CCc1cccc(NC(=O)C(Cc2ccccc2)NS(=O)(=O)c2ccc3c(c2)c(=O)n(C)c(=O)n3C)c1 (stereo unspecified) | inactive: -12.7%
37 | COc1cc(Cl)c(C)cc1Nc1nnc(-n2nc(C)cc2C)c2ccccc12 | inactive: -15.6%
38 | COc1ccc(-c2nc3sc(CCNS(=O)(=O)c4c(C)cc(C)cc4C)c(C)n3n2)cc1 | inactive: -9.77%
39 | N[C@H]1CN(c2c(F)cc3c(=O)c(C(=O)O)cn(C4C[C@@H]4F)c3c2Cl)CC12CC2 (stereo partly specified) | inactive: -21.1%
40 | Cc1cc(SCC(=O)Nc2nsc(-c3ccc(C(C)(C)C)cc3)n2)nc2ccccc12 | inactive: -42.9%
41 | COc1cccc(N2CCN(C(=O)c3c4c(nc5ccccc35)C(=O)N(C3CCCCC3)C4)CC2)c1 | inactive: -28.5%
42 | COc1ccc(OCc2nc(C#N)c(NCc3ccccc3Cl)o2)cc1 | inactive: -0.0626%

Row | Compound | activation
43 | COc1cccc(NC(=O)C2CCCN2S(=O)(=O)c2ccc3nc(-c4ccccc4)[nH]c3c2)c1 (stereo unspecified) | inactive: 35.6%
44 | CCOC(=O)N1CCc2c(sc3c2c(=O)n(-c2ccc(CC)cc2)c(=O)n3Cc2cccc(OC)c2)C1 | inactive: -10.6%
45 | COc1ccccc1N1CCN(S(=O)(=O)c2ccc(-n3cnnn3)cc2)CC1 | inactive: -14.2%
46 | CC(=O)Nc1cccc(NC(=O)Cc2csc(COc3cccc(C)c3)n2)c1 | active: 68.9%
47 | CCC(C(=O)Nc1cc(C)ccc1OC)n1nnc(C(=O)OC)c1C(=O)OC (stereo unspecified) | inactive: -12.1%
48 | CCOc1ccc(C2c3c(oc4cc(C)c(C)cc4c3=O)C(=O)N2c2ccccn2)cc1 (stereo unspecified) | inactive: 1.42%
49 | COc1ccc(NS(=O)(=O)c2ccc3c(c2)NC(=O)CCS3)c(OC)c1 | inactive: 20.9%
50 | CCOc1ccc(C(=O)Nc2ccc3c(c2)N(C(C)=O)CCC3)cc1OCC | inactive: -8.02%
51 | CCc1ccc(S(=O)(=O)N(C(C)=O)c2ccc3oc4c(c3c2)CCCC4)cc1 | inactive: -2.36%
52 | CC(=O)Nc1ccc(S(=O)(=O)Nc2nc3n(n2)C(c2ccccc2)C=C(c2ccc(Cl)cc2)N3)cc1 (stereo unspecified) | active: 83.5%
53 | CC(=O)N1c2ccc(S(=O)(=O)NCC3CCC(C(=O)Nc4cc(C)cc(C)c4)CC3)cc2CC1C (stereo unspecified) | inactive: 5.21%
54 | Cc1ccc(C)c(S(=O)(=O)n2nc(C)c(S(=O)(=O)N3CCC(C)CC3)c2C)c1 | inactive: -11.2%
55 | Cc1ccc(-n2nc3c(N4CCC(C(=O)N(C)Cc5ccccc5)CC4)nnc(C)c3c2C)cc1 | inactive: -6.86%
56 | COc1ccccc1CNC(=O)CCC(=O)N1Cc2ccccc2Oc2ncccc21 | inactive: -5.89%
57 | CN(C)c1ccc(CN(Cc2ccco2)C(=O)c2ccc(F)cc2)cc1 | inactive: -31%
58 | CCN(CC)CCOC(=O)c1ccc(NC(=O)c2cc3cccc(OC)c3oc2=O)cc1 | inactive: 2.41%
59 | Cn1c(=O)c2c(n3c4ccccc4nc13)NC(=O)CC2c1cccc(Cl)c1 (stereo unspecified) | inactive: -2.17%
60 | COc1ccc(Cl)cc1NC(=O)Cn1nnc(C(=O)NCc2ccc3c(c2)OCO3)c1N | active: 112%
61 | COC(=O)c1sccc1S(=O)(=O)N1CCN(c2ccc(C(C)=O)cc2)CC1 | inactive: -3.39%
62 | CCOC(=O)c1c(NC(=O)CSc2cn(CCNC(=O)c3c(F)cccc3F)c3ccccc23)sc2c1CCCC2 | inactive: 3.68%
63 | Cc1ccc(-c2cc(C(=O)Nc3c(C(=O)c4ccc(C)c(F)c4)oc4ccccc34)no2)cc1 | inactive: 5.75%

Row | Compound | activation
64 | CCOCCc1nn2c(=O)cc(COC(=O)c3cccc(C)c3)nc2s1 | inactive: -5.72%
65 | Cc1ccc(C)c(N2CCN(C(=O)C3CCCN(S(=O)(=O)c4cccc5nonc45)C3)CC2)c1 (stereo unspecified) | inactive: 9.85%
66 | C[C@](N)(Cc1ccc(O)c(O)c1)C(=O)O | inactive: -28.7% and inactive: 18.7%
67 | Cc1ccc(Cn2c(CN3CCC(C(=O)NCC(C)c4ccccc4)CC3)cc3ccccc32)cc1 (stereo unspecified) | inactive: -3.95%
68 | CC(=O)c1ccc(NC(=O)c2cc(C3CC3)nc3c2c(C)nn3-c2ccc(C)cc2)cc1 | inactive: 1.1%
69 | COc1ccc(S(=O)(=O)NCCc2sc(-c3ccccc3)nc2C)cc1F | inactive: 11.1%
70 | Cc1ccc(Cl)cc1N1CCN(S(=O)(=O)c2ccc(-c3cnc(C4CC4)o3)cc2)CC1 | inactive: -17.2%
71 | CC(C)c1ccc(NC(=O)c2ccc(F)c(S(=O)(=O)N3CCN(c4ccccc4F)CC3)c2)cc1 | inactive: -1.62%
72 | O=C(Nc1ccccc1F)C(Cc1ccccc1)N1Cc2ccccc2C1=O (stereo unspecified) | inactive: -13.9%
73 | O=C(Cn1cc(S(=O)(=O)N2CCN(c3ccccc3F)CC2)c2ccccc2c1=O)Nc1ccc(F)cc1Cl | inactive: -10.5%
74 | COc1ccc(S(=O)(=O)NCCc2sc(-c3cccc(F)c3)nc2C)cc1 | inactive: 43.5%
75 | COc1cc2c(C(=O)N3CCN(c4cc(Cl)ccc4C)CC3)cn(CC(C)C)c(=O)c2cc1OC | inactive: -4.55%
76 | COc1ccc(C(=O)N2CCN(C(=O)COc3ccc(C)cc3)CC2)cc1OC | inactive: -27.5%
77 | CC(C)c1ccc(NC(=O)CN2C(=O)CCc3cc(S(=O)(=O)N4CCOCC4)ccc32)cc1 | inactive: 1.99%
78 | COc1ccc(NC(=O)CN2CCN(c3ccccc3F)CC2)c(OC)c1 | inactive: -7.36%
79 | CCCOc1ccc(-c2cccc(NS(=O)(=O)c3ccc(CC)cc3)c2)nn1 | inactive: -8.05%
80 | CCC(C)NC(=O)CCC(=O)NNc1nc2ccccc2c2nc(C)nn12 (stereo unspecified) | inactive: -4.31%
81 | CCCSCCCNC(=O)CN1C(=O)CCn2nc(-c3cn(C)c4ccccc34)cc21 | inactive: -1.43%
